Data from paper PMC5700166.
Only a part is listed here, and it is no random draw. The list includes weakly bound sequences.

Columns and labels:
Test in all cases: protein-binding microarray (PBM)
Conditions in all cases: PBM: ~300 nM protein, 6 mM HEPES pH 7.8, 80 mM KCl, 0.5 mM EDTA, 0.5 mM EGTA, 6% glycerol, 35 ng/ul poly-dIdC, 1% milk, 1 h, room temperature; Ap Aiptasia and Nv Nematostella (sea anemones) / Co Capsaspora / Aq Amphimedon (sponge) / Dm Drosophila / Hu human; RHD is the Rel homology domain; high values mean tight binding; most listed sequences are background and not binding sites; double strand, one strand shown
GST-Ap-NF-kB RHD = target: T1, GST-Ap-NF-kB RHD (UniProt A0A913YAJ5)
T1 sequence: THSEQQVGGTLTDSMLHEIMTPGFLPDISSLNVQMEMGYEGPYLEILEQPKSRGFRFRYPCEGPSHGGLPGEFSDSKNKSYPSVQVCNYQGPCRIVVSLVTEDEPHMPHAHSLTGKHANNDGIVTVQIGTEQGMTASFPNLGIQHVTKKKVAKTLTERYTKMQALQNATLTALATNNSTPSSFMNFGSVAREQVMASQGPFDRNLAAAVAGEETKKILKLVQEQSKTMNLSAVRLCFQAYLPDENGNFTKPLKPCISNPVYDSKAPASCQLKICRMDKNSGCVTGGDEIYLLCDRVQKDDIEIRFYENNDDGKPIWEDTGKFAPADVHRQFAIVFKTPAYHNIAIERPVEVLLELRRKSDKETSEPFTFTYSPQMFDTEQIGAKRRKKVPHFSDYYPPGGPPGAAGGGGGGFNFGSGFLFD

[1] = target: T2, GST-Nv-NF-kB (Cys allele) (UniProt E5G601)
T2 sequence: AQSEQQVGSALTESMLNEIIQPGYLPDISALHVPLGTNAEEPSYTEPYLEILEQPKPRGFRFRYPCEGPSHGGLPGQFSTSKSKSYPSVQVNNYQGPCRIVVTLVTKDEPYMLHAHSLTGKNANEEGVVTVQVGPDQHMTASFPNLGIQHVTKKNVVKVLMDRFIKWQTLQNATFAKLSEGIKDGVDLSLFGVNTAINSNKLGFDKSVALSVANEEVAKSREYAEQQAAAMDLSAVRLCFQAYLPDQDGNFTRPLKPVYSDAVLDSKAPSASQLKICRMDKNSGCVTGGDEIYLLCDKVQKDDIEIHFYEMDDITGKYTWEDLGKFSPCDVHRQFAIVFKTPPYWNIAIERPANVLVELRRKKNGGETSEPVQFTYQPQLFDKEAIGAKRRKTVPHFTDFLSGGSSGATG

GST-Co-NF-kB = target: T3, GST-Co-NF-kB (UniProt F1ARL5)
T3 sequence: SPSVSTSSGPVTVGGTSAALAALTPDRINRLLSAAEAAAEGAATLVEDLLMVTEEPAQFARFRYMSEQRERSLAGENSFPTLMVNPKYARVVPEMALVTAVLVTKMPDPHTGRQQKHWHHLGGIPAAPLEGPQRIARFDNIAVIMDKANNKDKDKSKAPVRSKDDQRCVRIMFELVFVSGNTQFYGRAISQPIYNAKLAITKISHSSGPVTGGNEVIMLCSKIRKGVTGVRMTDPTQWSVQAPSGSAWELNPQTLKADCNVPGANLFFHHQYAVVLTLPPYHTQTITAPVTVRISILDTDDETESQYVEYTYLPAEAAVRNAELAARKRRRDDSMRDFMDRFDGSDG

GST-Dm-Relish = target: T4, GST-Dm-Relish (UniProt Q94527)
T4 sequence: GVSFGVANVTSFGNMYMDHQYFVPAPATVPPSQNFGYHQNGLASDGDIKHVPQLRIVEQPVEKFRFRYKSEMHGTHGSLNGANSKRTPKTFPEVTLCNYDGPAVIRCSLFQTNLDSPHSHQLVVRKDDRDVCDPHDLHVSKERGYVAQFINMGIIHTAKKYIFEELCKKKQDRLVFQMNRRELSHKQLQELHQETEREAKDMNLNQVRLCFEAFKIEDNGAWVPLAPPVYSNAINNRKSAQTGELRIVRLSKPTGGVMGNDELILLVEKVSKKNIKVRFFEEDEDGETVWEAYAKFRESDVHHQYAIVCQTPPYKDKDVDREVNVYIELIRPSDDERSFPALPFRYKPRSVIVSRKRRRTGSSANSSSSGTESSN

GST-Aq-NF-kB = target: T5, GST-Aq-NF-kB (UniProt A9Y5G7)
T5 sequence: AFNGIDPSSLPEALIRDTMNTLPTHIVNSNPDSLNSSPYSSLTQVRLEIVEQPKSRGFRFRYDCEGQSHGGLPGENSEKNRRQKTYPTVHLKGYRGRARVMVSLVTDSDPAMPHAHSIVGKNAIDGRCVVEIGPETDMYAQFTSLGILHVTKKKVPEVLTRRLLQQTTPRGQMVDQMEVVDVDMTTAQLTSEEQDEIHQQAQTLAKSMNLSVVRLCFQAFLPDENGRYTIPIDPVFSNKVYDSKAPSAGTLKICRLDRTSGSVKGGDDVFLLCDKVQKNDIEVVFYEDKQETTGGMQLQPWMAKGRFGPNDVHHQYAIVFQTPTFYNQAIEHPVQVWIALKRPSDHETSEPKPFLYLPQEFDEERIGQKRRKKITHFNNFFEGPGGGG

Sequence	binding signal (GST-Ap-NF-kB RHD) [z-score]	binding signal [1] [z-score]	binding signal (GST-Co-NF-kB) [z-score]	binding signal (GST-Dm-Relish) [z-score]	binding signal (GST-Aq-NF-kB) [z-score]
CCGATTAACATCAGATTCTCGTGTGATGTTAATCGGGTCTTGATTCGCTTGACGCTGCTG	-0.39	-0.561	0.299	0.29	-0.348
CCGATTAACATCACCGTTTAAGCTGATGTTAATCGGGTCTTGATTCGCTTGACGCTGCTG	0.048	0.954	-0.493	0.433	0.216
CCGATTAACATCAGTGTGTCGGATGATGTTAATCGGGTCTTGATTCGCTTGACGCTGCTG	0.0342	-0.478	0.369	-0.505	-0.445
CCGATTAACATCACAGTAACGGTTGATGTTAATCGGGTCTTGATTCGCTTGACGCTGCTG	-0.159	-0.523	0.133	-0.0235	-0.281
CCGATTAACATCAACACGCGCGATGATGTTAATCGGGTCTTGATTCGCTTGACGCTGCTG	-0.15	-0.524	-0.326	-0.366	-0.249
CCGATTAACATCACGGAATCTCCTGATGTTAATCGGGTCTTGATTCGCTTGACGCTGCTG	-0.21	0.0139	0.201	-0.0342	2.17
CCGATTAACATCATTAGTCTCGTTGATGTTAATCGGGTCTTGATTCGCTTGACGCTGCTG	0.0935	0.443	-0.159	-0.428	-0.537
CCGATTAACATCAATTTCCATAATGATGTTAATCGGGTCTTGATTCGCTTGACGCTGCTG	-0.664	0.214	0.0777	0.637	-0.13
CCGATTAACATCAGGATAGTCCATGATGTTAATCGGGTCTTGATTCGCTTGACGCTGCTG	-0.115	-0.468	-0.92	-0.152	0.68
CCGATTAACATCATTTCCGGAAATGATGTTAATCGGGTCTTGATTCGCTTGACGCTGCTG	-0.131	0.86	-1.12	0.0941	0.679
CCGATTAACATCAATGCCCGAGTTGATGTTAATCGGGTCTTGATTCGCTTGACGCTGCTG	-0.507	-0.00767	0.0825	-0.449	-0.0293
CCGATTAACATCATCTGAAGATTTGATGTTAATCGGGTCTTGATTCGCTTGACGCTGCTG	-0.483	-0.852	-1.13	-0.66	-0.606
CCGATTAACATCAGTGCAGTCTATGATGTTAATCGGGTCTTGATTCGCTTGACGCTGCTG	-0.469	0.235	-0.333	-0.0174	-0.237
